Source: PMC7819943, “Rice protein-binding microarrays: a tool to detect cis-acting elements near promoter regions in rice”
The other results are listed elsewhere or left out.

Molecular target: T1, OsWOX13 (Oryza sativa, UniProt Q5QMM3 1-267)
T1 sequence: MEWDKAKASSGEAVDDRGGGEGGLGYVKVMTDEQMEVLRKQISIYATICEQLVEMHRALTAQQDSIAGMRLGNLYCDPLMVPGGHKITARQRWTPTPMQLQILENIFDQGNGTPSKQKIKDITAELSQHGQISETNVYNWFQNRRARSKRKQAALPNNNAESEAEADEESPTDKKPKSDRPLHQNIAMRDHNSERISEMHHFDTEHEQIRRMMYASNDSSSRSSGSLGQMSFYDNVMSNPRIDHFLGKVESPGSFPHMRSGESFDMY
Experiment: protein-binding microarray (RPBM); PBS, 2% BSA, 51.3 ng/ul salmon testes DNA, 50 uM zinc acetate, 200 nM TF, 25 C, 1 h; high values mean tight binding
Details: protein: recombinant; tags: N-terminal polyhistidine and DsRed monomer fusion (pET32a); label: CyDye5-dUTP incorporated in the synthesized complementary strand; 3' TTTTT single-stranded linker to array surface; dsDNA, one strand shown
Procedure, shortened: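 Using Ni–NTA, transcription factors fused N-terminally to polyhistidine and DsRed were purified after expression in E. coli BL21-CodonPlus. These were incubated at 200 nM with a blocked, double-stranded custom Agilent array for 1 h at 25 °C in a buffer containing 50 µM zinc acetate, and the array was washed. The binding signal is per-feature fluorescence intensity (arbitrary units) on an Axon 4000B scanner.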

| Sequence | binding signal |
| --- | --- |
| GTTATATGATTGATTTATAATTTTCTAATAATTATACCAACGGAGTCACCTAGTGCAG | 50100 fluorescence intensity (a.u.) |
| AAGCAATTACTCACTAAATTGGCTATGGCTAGTGAGAGGTCGGAGTCACCTAGTGCAG | 33200 fluorescence intensity (a.u.) |
| TGAGATATGTATTTGCCAATTATCCCCATATCTCTTTGAGCGGAGTCACCTAGTGCAG | 3180 fluorescence intensity (a.u.) |
| TTTGATGTAATAAGTTTCACTTCGAAATTAAATCAGGGGTCGGAGTCACCTAGTGCAG | 4610 fluorescence intensity (a.u.) |
| TGTAATTACACTATAATTATATTCTAAATACATCTGTTAACGGAGTCACCTAGTGCAG | 45500 fluorescence intensity (a.u.) |
| ATTTATAATATTTAATTTAATTCAACCATGTGAGAATTTTCGGAGTCACCTAGTGCAG | 3940 fluorescence intensity (a.u.) |
| GTTACTATGATGTCCATCAAATTTGAACACATCCAGACTTCGGAGTCACCTAGTGCAG | 5730 fluorescence intensity (a.u.) |
| GTTTTGATTATCATAGCTCATAGATGGGCACTCCGCCACTCGGAGTCACCTAGTGCAG | 22200 fluorescence intensity (a.u.) |
| ATCAATCAATTATTTTAGTTCAGATTCTGCACAAAACAAACGGAGTCACCTAGTGCAG | 3830 fluorescence intensity (a.u.) |
| AAGCACTAATTTCTTATCCGCTTTAGCTTCCCGTGAGGCCCGGAGTCACCTAGTGCAG | 5050 fluorescence intensity (a.u.) |
| TTATTTATCAGTCTGATTTTATATAATGTAATATTATGCACGGAGTCACCTAGTGCAG | 3150 fluorescence intensity (a.u.) |
| ATTGATTAAACCCGGCCTCTACATCCAAACTGGATGTACACGGAGTCACCTAGTGCAG | 19000 fluorescence intensity (a.u.) |
| TCAAATTGTGGAGCGAAATTATCTTTGGAAGTATTTGTCCCGGAGTCACCTAGTGCAG | 5950 fluorescence intensity (a.u.) |
| CTAATTAATTAATCACAAGATAATGTATCGTTCCGTTTTCCGGAGTCACCTAGTGCAG | 43500 fluorescence intensity (a.u.) |
| GACTAATTGACTTGGACGGAGACCCCGCTGTTGAAGGTCACGGAGTCACCTAGTGCAG | 39200 fluorescence intensity (a.u.) |
| AAGCAATATAATTGTTTCTCTAATTAGGAGTTATACATGTCGGAGTCACCTAGTGCAG | 19000 fluorescence intensity (a.u.) |
| ATCAATTGGGCTGATTTTCGGGGATGGATAACATAGAATTCGGAGTCACCTAGTGCAG | 7450 fluorescence intensity (a.u.) |
| GTAAGAGCCAAATCATGATGGATTGATGGGGTGCACATGTCGGAGTCACCTAGTGCAG | 16500 fluorescence intensity (a.u.) |
| TATGTTTGTTGCACTTTGATTATTTGGGTGTTTCATTATCCGGAGTCACCTAGTGCAG | 3350 fluorescence intensity (a.u.) |
| ACGAGAGCTTTATTGATTAGACCACAGAATTACACACTTACGGAGTCACCTAGTGCAG | 3180 fluorescence intensity (a.u.) |
| GAGTTGACAGTTCGTCACTAGCTCGATCGCTAGTCGTCGCCGGAGTCACCTAGTGCAG | 4740 fluorescence intensity (a.u.) |

| Sequence | binding signal |
| --- | --- |
| TTAATTAGGAGCATTTCCATTGTCATTTGCTGATTCATATCGGAGTCACCTAGTGCAG | 3920 fluorescence intensity (a.u.) |
| ATAATTTCATGCACAAATTAACGGAGCAATATTGCAGTAACGGAGTCACCTAGTGCAG | 9830 fluorescence intensity (a.u.) |
| TTTTAATTTCTACCAACAATTAATTATGTTTGCCAGCAAACGGAGTCACCTAGTGCAG | 10300 fluorescence intensity (a.u.) |
| ACGGACACAAATTTGATGTATTAAACATAGAATAATAAAACGGAGTCACCTAGTGCAG | 3700 fluorescence intensity (a.u.) |
| ATATGCTAATTATGGATTAATTAAATTTAAAAGATTCGTCCGGAGTCACCTAGTGCAG | 38800 fluorescence intensity (a.u.) |
| CATCAATCTTCACCTATAAATTCTTGGCCAGCTGAACACACGGAGTCACCTAGTGCAG | 4960 fluorescence intensity (a.u.) |
| AACTTATTAAATGGCCATTAAGTTAGCAATCATCACAAACCGGAGTCACCTAGTGCAG | 8430 fluorescence intensity (a.u.) |
| GTTAATTAGTACTCCGTGTAATCTTGTTTGACGGTCAGGACGGAGTCACCTAGTGCAG | 33000 fluorescence intensity (a.u.) |
| CTGACACCAACAGCCGACCTGATTGAGAGAGATCAATTAACGGAGTCACCTAGTGCAG | 6500 fluorescence intensity (a.u.) |
| GTGTAATTGGTATGATATAGGCGGCATATTATATATATCACGGAGTCACCTAGTGCAG | 21400 fluorescence intensity (a.u.) |
| GAGACAAAGATTTAACAAATTTGCTCAACTACCGATCGAACGGAGTCACCTAGTGCAG | 6550 fluorescence intensity (a.u.) |
| ATTCTGAATTTTAATTAATCTCATATTGGGTTCTTATATGCGGAGTCACCTAGTGCAG | 5170 fluorescence intensity (a.u.) |
| TTAATGTTAAATTTAATGAAGCTAGTTTGGTGTTATAGATCGGAGTCACCTAGTGCAG | 8140 fluorescence intensity (a.u.) |
| ACTTTAATTAAAATCAAATTATTATAAGTTTAATTAATTTCGGAGTCACCTAGTGCAG | 19400 fluorescence intensity (a.u.) |
| CTGTTTAGTTAATTACTCATCAGTTAGTCTTGCATAATTTCGGAGTCACCTAGTGCAG | 15200 fluorescence intensity (a.u.) |
| AATTAATAATTACTTAAATGTTTTGAATAAGACGAATGGTCGGAGTCACCTAGTGCAG | 16400 fluorescence intensity (a.u.) |
| TTAAATAATTGGTTTTACGATAAGTTTGTCAAACTACAATCGGAGTCACCTAGTGCAG | 3770 fluorescence intensity (a.u.) |
| TGTGACAAACAATGATTACCAAGCTTTTGGGGAAATATAGCGGAGTCACCTAGTGCAG | 16900 fluorescence intensity (a.u.) |
| GCGAGATAAATCAACCAATTTCGTATGGATTTTGGTGCCTCGGAGTCACCTAGTGCAG | 3990 fluorescence intensity (a.u.) |
| AAGTCATAATAAGGTTAATTGGTTGTAGTATAGTTAAGGTCGGAGTCACCTAGTGCAG | 10500 fluorescence intensity (a.u.) |
| GCCAATCAGTGAGAAAGCAAGTGATTACAGATCTAGAGATCGGAGTCACCTAGTGCAG | 6600 fluorescence intensity (a.u.) |
